# Legend:
# undifferentiated hESCs = assay: NAM induction of undifferentiated hESCs maintained in the defined culture (cardiac induction); assay type: cell-based, human
# Text: In order to achieve uniformly conversion of pluripotent hESCs to a lineage-specific fate, I have used the defined culture system to screen the differentiation inducing effect of a variety of small molecules and growth factors on the pluripotent state of hESCs. […] (FIGS. 1-5). […] (FIGS. 1-3).
# (Stage 1—Human Cardiomesodermal Cells) (FIGS. 1; 2a, b). […] (FIGS. 1; 3a). […] (FIGS. 1, 3b). […] (FIG. 3b). […] (FIG. 3c). Cardiac specific transcription factor (Csx) Nkx2.5 is an evolutionally conserved homeobox transcription factor indispensable for normal cardiac development. The onset and pattern of early Nkx2.5 expression roughly coincide with the timing and area of cardiac specification, and Nkx2.5 gene continues to be expressed through development in the heart. Expression of Nkx2.5 is the earliest marker for heart precursor cells in all vertebrates so far examined and is essential for proper cardiac septation and formation/maturation of electrical conduction system.
# [1] = test system: hESCs maintained on feeders; hESC-differentiated EBs; assay: Small molecule treatment of hESCs on feeder cells / conditioned media or of embryoid bodies; assay type: cell-based, human; details: EBs or feeder conditions
# Text: In order to achieve uniformly conversion of pluripotent hESCs to a lineage-specific fate, I have used the defined culture system to screen the differentiation inducing effect of a variety of small molecules and growth factors on the pluripotent state of hESCs. […] (FIGS. 1-5). Similarly, the defined platform renders NAM sufficient to induce the specification of cardiomesoderm direct from the pluripotent state of hESCs by promoting the expression of the earliest cardiac-specific transcription factor Csx/Nkx2.5 and triggering progression to cardiac precursors and beating cardiomyocytes efficiently (FIGS. 1-3).
compound,measurement,setting,value
"NC(=O)c1cccnc1 [NAM, nicotinamide]",expression of cardiac marker Csx/Nkx2.5,"undifferentiated hESCs; NAM (10 mM), defined culture","began expressing the earliest marker for heart precursor, Csx/Nkx2.5"
same,retention of strong contractility of the cardiomyocytes,undifferentiated hESCs; NAM-induced cardiomyocytes,over 3 months
same,cardiac induction when applied to EBs or hESCs on feeder cells / conditioned media,[1],not sufficient
